# Like-named read-outs stand apart in the source and are kept apart here.
# Test system: B. subtilis cells
Structure (SMILES),cell wall disruption by FM 4-64 dye,"cell wall disruption by FM 4-64 dye (B. subtilis cells, fluorescence microscope, FIG. 1C)"
"Brc1ccc2[nH]cc(Sc3ccccc3Br)c2c1 [Compound 174I, 5-bromo-3-((2-bromophenyl)thio)-1H-indole]",aggregation and cell wall disruption,–
"CC[C@H](C)[C@H](NC(=O)CN)C(=O)NCC(=O)N[C@@H](C)C(=O)N[C@H](C(=O)N[C@@H](CC(C)C)C(=O)N[C@@H](CCCCN)C(=O)N[C@H](C(=O)N[C@@H](CC(C)C)C(=O)N[C@H](C(=O)N[C@H](C(=O)NCC(=O)N[C@@H](CC(C)C)C(=O)N1CCC[C@H]1C(=O)N[C@@H](C)C(=O)N[C@@H](CC(C)C)C(=O)N[C@H](C(=O)N[C@@H](CO)C(=O)N[C@@H](Cc1c[nH]c2ccccc12)C(=O)N[C@H](C(=O)N[C@@H](CCCCN)C(=O)N[C@@H](CCCNC(=N)N)C(=O)N[C@@H](CCCCN)C(=O)N[C@@H](CCCNC(=N)N)C(=O)N[C@@H](CCC(N)=O)C(=O)N[C@@H](CCC(N)=O)C(N)=O)[C@@H](C)CC)[C@@H](C)CC)[C@@H](C)O)[C@@H](C)O)C(C)C)C(C)C [melittin, reference compound]",–,aggregation and cell wall disruption

# Source: patent US20250382268A1, “METHODS AND COMPOSITIONS FOR SELECTIVELY INHIBITING PATHOGENIC MICROBES” (priority 2019, published 2025)
